# Experimental data taken from paper PMC5836133.
# The other results are listed elsewhere or left out. At the low end of the ranking the order means little.
# System: T1, GST-NbGlk1(82-244)
# T1 sequence: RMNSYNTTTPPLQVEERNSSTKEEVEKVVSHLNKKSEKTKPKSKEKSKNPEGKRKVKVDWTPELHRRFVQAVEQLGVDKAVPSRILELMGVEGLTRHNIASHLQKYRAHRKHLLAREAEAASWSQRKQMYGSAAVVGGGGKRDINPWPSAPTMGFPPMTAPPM
# Assay: protein-binding microarray;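 further: rank-based score ranging −0.5 to +0.5 with E above 0.45 taken as significant binding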
# Conditions: NbGlk1 is a Golden2-like transcription factor of Nicotiana benthamiana; high values mean tight binding; most listed sequences are background and not binding sites; double strand, one strand shown
row,Sequence,binding signal [E-score]
1,AGCCAATC,0.0323
2,ATTTTTTG,0.315
3,CACGTAGC,-0.173
4,AGGTTTGG,-0.106
5,ACAGGTTC,-0.127
6,ATTAAGTG,0.101
7,ATAGATAA,0.102
8,ATATACGG,0.0502
9,ATCTCACA,0.289
10,CAGACCCA,-0.243
11,AGAATATG,0.253
12,AGTCAGGC,-0.149
13,AGTTGGTG,-0.259
14,AAGCGCGT,-0.07
15,ACTCGCTA,-0.000319
16,AAGTCGGA,-0.157
17,AAGAGTAG,-0.0173
18,ATTGCAGA,0.253
19,ATCTAGGC,0.0826
20,ATGCGGGC,-0.163
21,AGACGCAA,0.0374
22,AAGTCTGG,-0.194
23,AGGTCGTC,-0.304
24,AATTGGCA,-0.113
25,AGCGGCCG,-0.22

row,Sequence,binding signal [E-score]
1,CAGATCCA,0.23
2,ATCATAAG,0.147
3,ACTGACTC,-0.233
4,ATGTCTTG,0.0564
5,AAATAGAG,0.039
6,AAACCGGA,0.0925
7,ATTCAGTG,0.105
8,AAGCACAT,-0.0306
9,ACCGGATA,0.262
10,CAGAGTCC,-0.0643
11,AAGACAAC,-0.225
12,ACCTTAGG,-0.0467
13,ATCCGGAG,0.233
14,ATCCTTCA,0.192
15,AGAAGTGG,-0.197
16,ACAGTCAT,-0.0447
17,ACTATCCT,-0.00837
18,AATCAGCT,0.192
19,AGCACGCC,-0.26
20,ACTACCCA,-0.138
21,AGGAGGGG,-0.225
22,ATCGGCAT,0.156
23,AGCAGACA,-0.167
24,AAGCCGGT,-0.217
25,CACCTTCG,-0.27

row,Sequence,binding signal [E-score]
1,CAAGAATA,0.146
2,ACCCCACA,-0.222
3,ACTGCAAT,0.211
4,CAACGCGG,-0.161
5,ATAGACTA,-0.0113
6,AAATTGCC,0.148
7,AATAGTCC,-0.0566
8,ATGCGGCC,-0.334
9,ACGGTGGG,-0.0547
10,AATGTGTA,0.132
11,CAAAAATA,0.143
12,ATAGCCCA,0.0393
13,ACTAAGGG,-0.158
14,ACGACCAA,-0.0382
15,AATTTTCC,0.175
16,CAGATGCA,-0.12
17,ACGTGGCT,-0.152
18,AGATGGGA,-0.0529
19,ATGAATAG,-0.0103
20,AGTATTTG,0.208
21,ATTCTCTG,0.358
22,AACGACAA,0.0396
23,ATCCCGCA,0.289
24,ATAAGAAA,0.112
25,AATACGTA,0.165

row,Sequence,binding signal [E-score]
1,ACACCCGA,-0.175
2,ATACTGCC,0.0301
3,AACTTCGC,0.0397
4,AATGATTG,0.0725
5,ATCACGCA,0.163
6,AACGCCTA,-0.126
7,AGGAAAGA,-0.124
8,ACGTGCTC,-0.166
9,AAGGGAGG,-0.161
10,ATATTCCG,0.36
11,AGCGTAAC,-0.0111
12,ACAACACA,0.0999
13,ATCAACTC,0.0894
14,ACGCGAAG,-0.0403
15,AATGGTGC,-0.217
16,ATAATACC,0.0183
17,AATGGATC,0.152
18,ATTAGGAA,0.0217
19,CAAAGCTG,-0.0649
20,ATGCCTGC,-0.147
21,AGCAAAAA,-0.0149
22,ACCGCCAG,-0.118
23,ACGCGAGC,-0.113
24,CACAAACC,0.0339
25,ATCTGTAC,0.32

row,Sequence,binding signal [E-score]
1,AGTGATGG,-0.114
2,ATAGTACG,-0.00778
3,AGTGCATC,-0.0849
4,ACGTCAGG,-0.0944
5,ACCGCCTA,-0.0787
6,AGGTGGTA,-0.059
7,AATCCCCC,0.215
8,AATTATGA,0.075
9,ATCGTTTA,0.154
10,AGCATAGA,0.0316
11,ACGGGCCT,-0.26
12,AATAGATC,0.247
13,AGAGCTGA,-0.149
14,ATTGTTAA,0.167
15,AGAAGTCC,-0.11
16,CACTAACG,-0.0933
17,AGAGCCGG,-0.284
18,ATCACTGC,0.0571
19,AGTATCCG,0.328
20,ATACACCG,0.0886
21,AACGCAGA,0.0909
22,AAGTAAGC,0.0576
23,AGCTTGTC,-0.173
24,AGCCAGCC,-0.315
25,ATCTGTGG,0.0582

row,Sequence,binding signal [E-score]
1,AACTATTC,0.0588
2,AACCTACT,-0.121
3,ATTTTTAA,0.221
4,ACCTTACA,-0.151
5,ACGGGCAC,-0.216
6,CAGCCTGC,-0.271
7,AGAGAGAT,0.241
8,AACTCTCG,-0.139
9,ACGCATAT,0.135
10,ATATATTA,0.229
11,AGCCCGCA,-0.24
12,ATCTAACA,0.189
13,ATTTTTCA,0.253
14,ATGCACCG,-0.0282
15,ATTCAGCC,-0.125
16,AGGACGGG,-0.199
17,AGGCCGTG,-0.0812
18,AATTTGGC,0.0936
19,AGTCGAAA,0.00178
20,ACTTTATC,-0.113
21,AGATGGTG,-0.159
22,CAGCGTAA,0.0765
23,AGCAGTAG,-0.164
24,AACCGGCA,-0.0824
25,CAATGTCC,-0.122

row,Sequence,binding signal [E-score]
1,ATGGAAGC,-0.232
2,ATCATTTC,0.0315
3,AGGGACAA,-0.0574
4,CACCGTCC,-0.0564
5,AAACGTTG,-0.0651
6,ATGCCGTC,-0.0301
7,ACCTGCTG,-0.219
8,ACTAGCGA,-0.114
9,AATTGCGC,0.227
10,ACGGAGCG,-0.123
11,AGCTTGGA,-0.0781
12,ACAATCTC,0.373
13,ACGAAACC,-0.0433
14,ACCCAGCT,-0.0896
15,AAGCCGTA,-0.118
16,AAACACCT,-0.0521
17,ATTTCTGA,0.2
18,AGCGTCCA,-0.0922
19,AAAGACGG,-0.0789
20,AAAGACCA,-0.106
21,AAATGGGC,-0.112
22,ACAGTTCG,0.0148
23,ACGACGGG,-0.205
24,AATTACAC,0.225
25,AGTTGAAG,-0.0841

row,Sequence,binding signal [E-score]
1,CACATTGG,-0.124
2,AGGCGAAT,0.256
3,ATAGGAGC,-0.0934
4,ACCGGACC,-0.206
5,ACCGGGAG,-0.258
6,ATTAAGGG,0.0229
7,AGAGATTG,0.325
8,AGAAGGAT,0.111
9,CAAATCTC,0.426
10,ATATTCCC,0.393
11,ATTTATTC,0.146
12,AACGCAAT,0.344
13,ACAGTCAG,-0.164
14,AAATTAAT,0.107
15,ATTAGGTG,0.017
16,ACACACAG,0.0767
17,CACATGTC,-0.123
18,ACAATTTG,0.0524
19,AGAACACG,-0.11
20,CACATAAC,-0.0587
21,ACTTTTCT,-0.0504
22,AGATATCT,0.48
23,AGCATCTG,-0.00169
24,ATGAGTAG,0.0477
25,ACGACCGT,-0.191

row,Sequence,binding signal [E-score]
1,AACCGACG,0.037
2,CACTGTCG,-0.109
3,CACAATAA,0.14
4,AACAAAAA,0.12
5,ATTAGTTA,-0.0656
6,AATGCCTA,0.0141
7,ATTGTCCC,0.075
8,ACACTAAT,0.186
9,AGAGGATG,-0.0479
10,AAACCAAG,0.0458
11,CAGACCCC,-0.203
12,CAAAAAGA,0.0261
13,AGGTAGCG,-0.0617
14,AACCATTG,-0.178
15,ATCAGTCA,0.0635
16,ACAGCCCA,-0.239
17,AAAGAGTT,0.112
18,AATATTGC,0.225
19,AATTGAAG,0.0609
20,AAGATTCA,0.205
21,ATCGTAGC,0.134
22,ATAGATGC,0.0568
23,ATCACCTA,0.0666
24,AACCTTAT,-0.134
25,AACGGGAA,0.0521

row,Sequence,binding signal [E-score]
1,AAAGAGGC,-0.108
2,ACCGGCGC,-0.167
3,AACACCGG,-0.0404
4,AGGCAGAC,-0.385
5,ATCACGGC,0.11
6,AACTTCTG,-0.143
7,AGCAAATG,-0.0847
8,ATATTGAC,0.153
9,ATTCCGTG,0.306
10,ATTAAGTA,0.199
11,AACCCGCT,-0.215
12,AATTGAGA,0.135
13,CAAGATGA,0.0465
14,ATCCGATA,0.376
15,AATTCAAT,0.0348
16,ATGAATGA,0.0334
17,ACACCAAA,0.071
18,ACCTGCGA,-0.0456
19,CAACAGGA,-0.0431
20,ACCGCTCC,-0.0914
21,ATGGACTG,-0.246
22,AGAGACAT,-0.0498
23,CAACCCTG,-0.0918
24,AATTCGAC,-0.0337
25,ATCCCTCC,0.0947

row,Sequence,binding signal [E-score]
1,CAACCGGG,-0.243
2,AGACCTCG,-0.142
3,ACTTACAT,0.082
4,AAGGTCTC,-0.255
5,ACCTGTCA,-0.202
6,AGGTCTAA,-0.117
7,AGTGGTGG,-0.0561
8,ACCAGAGG,-0.138
9,AAACGCTA,-0.0214
10,AATACCCG,-0.0563
11,AGTTCTGG,0.0355
12,AAGTAAAC,-0.00897
13,ATTATCAC,0.132
14,ACCTGCCC,-0.26
15,ACATCGCT,-0.0352
16,ACGGCCAT,-0.225
17,AGGAATAA,0.166
18,ATTAGGAC,0.00748
19,ACACTCCT,-0.103
20,CAAAAACG,-0.0685
21,ACGAGATG,-0.115
22,ATGTATGG,-0.031
23,AGTCTTGA,-0.0323
24,CAAGTCGG,-0.092
25,AGGGCCTG,-0.172

row,Sequence,binding signal [E-score]
1,ACGTAGAC,-0.137
2,ATCCTCGA,0.224
3,AGTTCACG,-0.0796
4,AGGGTTAC,-0.0759
5,ATCTTAGG,0.113
6,ACCTTCCT,-0.173
7,AAACCGTA,-0.0306
8,AAGCGGCC,-0.322
9,ACATATCT,0.344
10,ACAATGAT,0.0877
11,AGAAAGCG,-0.102
12,AAAAGAGG,-0.0266
13,AGGCCACG,-0.286
14,CAAAAGCC,-0.0928
15,ACCCTAAT,-0.0342
16,AGAGAAAG,-0.0649
17,AAAAACCG,0.0594
18,ATACCTAA,0.109
19,ACAGCGGG,-0.128
20,AAGGCTTC,-0.291
21,CAAGGATG,-0.0257
22,AGCTCCGC,-0.302
23,AAACGTCT,-0.176
24,AGCGCTAC,-0.132
25,ACCGATCT,0.0691

row,Sequence,binding signal [E-score]
1,ACCGATAG,0.0199
2,ATTTTAAC,0.202
3,ACTATTGA,0.0562
4,AACTGCAA,0.0843
5,AGGATTTG,0.383
6,AGCCCTGG,-0.348
7,AAGAAGCC,-0.208
8,ATTTCTGG,0.217
9,AATGCTAC,-0.173
10,ACCCAACC,-0.161
11,ATTTCGAC,0.266
12,ACTCTCAT,0.0635
13,ATAACGAC,0.0317
14,ACCCGGAG,-0.244
15,AACTTTAA,0.0354
16,AACGGCAG,-0.179
17,CAAGACTC,-0.127
18,CACGGCGA,-0.105
19,ATAGAGGA,0.14
20,ATCTGCGA,0.35
21,CAGCGGGC,-0.337
22,CACAGCTG,-0.0125
23,ATGGTCAA,-0.107
24,ACGGCTCT,-0.0979
25,ATGCTGCA,-0.0645

row,Sequence,binding signal [E-score]
1,ACGAATCA,0.247
2,ACTCATGA,0.0451
3,AGCCCGGC,-0.313
4,CAAGGTAA,0.174
5,CACTGCAC,-0.084
6,ACATAAAA,0.123
7,AAAGGTCT,-0.0474
8,AGTAGTCA,-0.093
9,AAGTTCAC,-0.0733
10,ACGGCGAG,-0.127
11,CAAGGGAA,0.0129
12,ATCAGCCG,-0.0643
13,ACGAGTTC,-0.18
14,AAATACCC,0.0277
15,AATGTTTA,0.131
16,AGAAGCTC,-0.283
17,ACGGACTA,-0.0842
18,ACCTAAGT,-0.147
19,ACCCTCAC,-0.194
